Results taken from article PMC4336329 (PLoS ONE, 2015).
Out of some 310,000 compounds screened, about 14,000 (4.5%) showed an effect of 50% or more. The effect is printed as a negative number. This is one part of the list.

The compounds below were run against human ether-à-go-go-related gene (hERG) potassium channel (human, UniProt Q12809) (assay: primary screen, population patch clamp on CHO cells stably expressing hERG).
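Further: peak tail current of the secondary pulse compared with the same well before compound.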

Chain of human ether-à-go-go-related gene (hERG) potassium channel (Q12809 whole entry, looked up): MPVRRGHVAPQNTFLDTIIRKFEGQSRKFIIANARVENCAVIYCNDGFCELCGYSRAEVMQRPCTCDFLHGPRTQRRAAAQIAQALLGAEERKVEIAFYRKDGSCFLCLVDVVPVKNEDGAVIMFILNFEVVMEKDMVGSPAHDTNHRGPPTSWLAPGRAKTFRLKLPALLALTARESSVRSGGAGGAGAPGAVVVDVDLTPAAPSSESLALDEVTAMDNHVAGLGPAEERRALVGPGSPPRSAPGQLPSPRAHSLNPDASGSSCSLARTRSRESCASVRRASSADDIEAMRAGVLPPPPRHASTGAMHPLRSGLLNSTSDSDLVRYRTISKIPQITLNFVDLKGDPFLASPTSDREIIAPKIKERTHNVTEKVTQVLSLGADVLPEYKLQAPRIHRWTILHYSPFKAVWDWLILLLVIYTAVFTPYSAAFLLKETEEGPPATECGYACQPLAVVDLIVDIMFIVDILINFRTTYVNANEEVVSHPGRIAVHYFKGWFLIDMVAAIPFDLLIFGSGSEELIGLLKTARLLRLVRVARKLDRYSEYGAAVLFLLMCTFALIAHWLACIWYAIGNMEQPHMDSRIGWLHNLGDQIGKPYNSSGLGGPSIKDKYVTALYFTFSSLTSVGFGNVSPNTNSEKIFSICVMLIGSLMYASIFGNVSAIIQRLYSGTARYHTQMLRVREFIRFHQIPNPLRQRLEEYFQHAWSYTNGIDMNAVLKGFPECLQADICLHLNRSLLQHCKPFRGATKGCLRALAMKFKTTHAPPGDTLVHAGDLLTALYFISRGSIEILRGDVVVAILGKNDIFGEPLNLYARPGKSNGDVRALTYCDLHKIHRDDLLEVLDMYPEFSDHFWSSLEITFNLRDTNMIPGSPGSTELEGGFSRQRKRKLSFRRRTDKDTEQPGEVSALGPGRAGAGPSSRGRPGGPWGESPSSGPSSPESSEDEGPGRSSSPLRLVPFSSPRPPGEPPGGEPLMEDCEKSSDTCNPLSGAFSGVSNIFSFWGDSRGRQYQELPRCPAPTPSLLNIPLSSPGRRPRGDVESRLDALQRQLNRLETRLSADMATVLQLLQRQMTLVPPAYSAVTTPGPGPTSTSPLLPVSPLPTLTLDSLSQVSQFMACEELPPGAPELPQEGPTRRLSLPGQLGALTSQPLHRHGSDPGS

SMILES	hERG current change (%, negative = inhibition) at 10uM [%]
COc1ccc(-c2noc(CNC(=O)c3ccoc3C)n2)cc1	-12.3
CC(C)(C)N/C=C(\C#N)S(=O)(=O)c1ccc(Br)cc1	-10.5
Cc1cc(C)c(C)c(S(=O)(=O)Nc2ccc(OCC(=O)O)cc2)c1C	12.8
CC(C)Oc1ccc(C(=O)NC(Cc2c[nH]c3ccccc23)C(=O)NN)cc1 (centres unmarked)	4.25
CC(Oc1ccccc1)C(=O)N=Nc1c(O)[nH]c2ccc([N+](=O)[O-])cc12 (centres unmarked)	8.25
COc1ccccc1N(CC(=O)NC(C)C)S(=O)(=O)c1cccs1	4.96
CCN1CC2CCCC3(C1)C(=O)NC1(CCCCC1)N=C23 (centres unmarked)	5.63
CCOC(=O)c1ccc(Oc2nc(NC(C)(C)C)nc(N(C)C)n2)cc1	1.23
CCn1c(=S)sc2c(=O)n(CC(=O)Nc3ccc(C(C)=O)cc3)c(C)nc21	5.78
CCn1cc(/C=N\NC(=O)c2ccc(F)cc2)cn1	5.37
CC(=O)N1CSCC1C(=O)O (centres unmarked)	20.6
CC(C)(O)[C@H](O)COc1c2ccoc2cc2oc(=O)ccc12	16.1
O=C(Nc1cccnc1)c1sc(Nc2ccccc2F)nc1-c1ccccc1	20.5
O=C1C2CCCN2C(c2ccccc2)N1c1ccc(Cl)cc1 (centres unmarked)	11.8
Cc1ccc(-c2noc(/C=C/c3ccccc3)n2)cc1	7.16
O=C(Nc1c[nH]c(=O)[nH]c1=O)c1cc([N+](=O)[O-])cc([N+](=O)[O-])c1	32.3
O=C(NCc1cccc(Cl)c1)c1cc(=O)[nH]c2ccccc12	4.81
O=C(OC(C(=O)NC1CCCCC1)c1ccccc1)c1ccco1 (centres unmarked)	7.23
O=C1C(=O)N(C2CCS(=O)(=O)C2)C(c2cccc(O)c2)/C1=C(/O)c1ccc(Cl)cc1 (centres unmarked)	14.7
COc1ccc(-c2c3c(nc4sc5c(Cl)nc(C)nc5c24)CCC3)cc1	17.7
CSc1nnc(-c2sccc2-n2cccc2)o1	27.4
Cc1ccc(-c2n[nH]c(=S)n2/N=C/C=C/c2ccccc2[N+](=O)[O-])cc1	-4.99

SMILES	hERG current change (%, negative = inhibition) at 10uM [%]
O=C(NCc1cc(C(F)(F)F)ccc1F)C1CCC(=O)N(C2CC2)C1 (centres unmarked)	9.91
CC1CC(C)CN(C(=O)CCC(=O)Nc2nnc(C3CCCCC3)s2)C1 (centres unmarked)	14.2
CCSc1ccc([C@@H]2[C@@H]3C(=O)N(C)C(=O)[C@@H]3[C@]3(C(=O)OC)CCCCN23)cc1.O=C(O)C(F)(F)F	14.5
CCOC(=O)c1c(-c2ccccc2)csc1NC(=O)/C(C#N)=C/c1ccc(O)c(OC)c1	-7.1
Cc1ccc(Cl)cc1NC(=O)CN1C(=O)NC2(CCCCCC2)C1=O	-15.2
Cc1ccc(Cn2ncc3c(N4CCN(c5ccccc5C)CC4)ncnc32)cc1	10.7
Cc1ccc(C(=O)Oc2ccc3c(c2)ncn3C)cc1	-3.22
COc1ccc(C[C@H]2CN3C(=NC[C@@H]3Cc3ccc(O)cc3)N2CCNC(=O)c2ccc(C)c(Br)c2)cc1	-74.3
CCOc1cc(N2CCOCC2)c(OCC)cc1NC(=O)C1CC(=O)N(c2ccc(C)cc2)C1 (centres unmarked)	-2.64
CC(C)(C)C(=O)c1sc2nc(-c3cccs3)cc(C(F)(F)F)c2c1N	10.7
Cc1cc(Cl)ccc1OCC(=O)NNC(=O)C1CSC2(C)CCC(=O)N12 (centres unmarked)	-18.5
COc1cc(/C=C2\SC(N)=NC2=O)cc(OC)c1	4.6
CCn1c(COc2ccc(C)cc2)nnc1SCC(=O)NCc1ccco1	-22.1
COc1cccc(C(=O)Cn2c(=O)n(CC3CCCO3)c(=O)c3ccccc32)c1 (centres unmarked)	-10.4
O=C(O)c1cc2c(ccc3ccccc32)[nH]1	3.61
COc1ccc(NC(=O)O/N=C/c2ccncc2)cc1	22
COc1ccc(CNC(=O)c2c(N)n(CCCN3CCOCC3)c3nc4ccccc4nc23)cc1	-12.7
Cc1ccc(CNC(=O)CN(c2cccc([N+](=O)[O-])c2)S(C)(=O)=O)cc1	0.796
Cl.N=c1sccn1CC(=O)Nc1ccc(SC(F)F)cc1	-62.1
Cc1ccc(-c2nn(CCC(=O)NN3CCOCC3)c(=O)c3ccccc23)cc1	-15.9
CCN(C(=O)COC(=O)CNC(=O)c1ccc(F)cc1)C1CCS(=O)(=O)C1 (centres unmarked)	10.4
CS(=O)(=O)Nc1ccccc1C(=O)c1ccccc1	6.76

SMILES	hERG current change (%, negative = inhibition) at 10uM [%]
Cn1c(N)c(C(=O)COC(=O)C2(c3ccc(F)cc3)CCCC2)c(=O)n(C)c1=O	6.15
CCOc1ccc2nc(NCCCNS(=O)(=O)c3ccc(C)cc3)c(C#N)cc2c1	-1.41
O=C(Cc1cccs1)Nc1cccc([N+](=O)[O-])c1	1.06
Fc1cccc(Cl)c1/C=N/n1c(-c2cccnc2)n[nH]c1=S	31.3
CC(C)(C)c1ccc(Cn2c(=N)n(CC(O)c3ccco3)c3ccccc32)cc1.Cl (centres unmarked)	-71.9
CCOc1ccc(S(=O)(=O)N2CCCCC2)cc1NC(=O)CCc1ccc(OC)cc1	14.4
O=C(O)Cc1c(-c2ccccc2)c2cc(Br)ccc2[nH]c1=O	12
CCCOc1ccc(N2C(=O)CC(NCC(=O)OCC)C2=O)cc1 (centres unmarked)	8.44
Clc1ccc2c(c1)C1=C(C(c3ccncc3)O2)C(c2ccc(Br)cc2)n2ncnc2N1 (centres unmarked)	4.44
Cc1cc(C)c[n+](-c2nc3ccccc3nc2[N-]S(=O)(=O)c2ccc(Cl)cc2)c1	-6.09
O=C(O)c1ccccc1SCC(=O)N1CCOCC1	14.7
CCOC(=O)CNC(=O)c1cc(OC)cc(OC)c1	15.2
COc1cc(CN2CCCCC2C(=O)Nc2ccc(Oc3ccccc3)nc2)ccc1O (centres unmarked)	-4.36
CCc1nnc(NS(=O)(=O)c2ccc(N=Cc3c(O)n(-c4ccccc4)c(=O)[nH]c3=O)cc2)s1	13.2
CC(C)CCn1c(-c2nonc2N)nc2ccccc21	4.68
O=C(O)C(Cc1ccccc1)Nc1ccc([N+](=O)[O-])cc1[N+](=O)[O-] (centres unmarked)	19.2
O=C(NC1CCCC1)C(c1ccncc1)N(C(=O)c1csnn1)c1ccc(F)c(Cl)c1 (centres unmarked)	-4.2
CCOc1cc(CNCCO)cc(Br)c1OCc1ccc(Cl)cc1.Cl	-16.5
Cc1ccc(-n2ncc3c(=O)n(CC(=O)NCc4ccco4)cnc32)cc1	16.3
CCOC(=O)CN1CC23C=CC(O2)C(C(=O)NCc2ccccc2OC)C3C1=O (centres unmarked)	-22.6
COc1ccc(C(=O)Nc2ccnn2C2CCN(Cc3ccncc3)CC2)cc1	-8.86
O=C(Nc1ccc(N2CCOCC2)cc1)Nc1ccc2nc(-c3ccco3)c(-c3ccco3)nc2c1	-17.3

SMILES	hERG current change (%, negative = inhibition) at 10uM [%]
Cc1cc(NC(=O)CSCC(=O)Nc2nc3ccc(F)cc3s2)no1	7.74
CCOC(=O)Cc1c(C)nc2c(-c3ccc(Cl)cc3)cnn2c1C	3.77
Cc1sc2ncnc(N3CCC(C(=O)Nc4ccccc4C(C)(C)C)CC3)c2c1C	-15.2
CCN(CC)Cc1csc(C(N)=O)c1	14.6
O=C(Nc1nc2c(F)cc(F)cc2s1)c1ccc([N+](=O)[O-])o1	21.1
COc1ccc(Cl)cc1N1Cc2ccccc2C1	-3.46
CCOC(=O)C1=C(COC(=O)/C=C/c2cccc([N+](=O)[O-])c2)NC(=O)NC1C (centres unmarked)	11.7
COc1ccc(-c2csc(NC(=O)CN3C(=O)NC4(CCCC4)C3=O)n2)cc1	-2.27
CC(C)c1ccccc1NC(=O)COc1ccc(C(=O)NCCc2ccccc2)cc1	-2.08
Cc1cc(C)c(C#N)c(SCC(=O)c2cc(C)n(CCc3ccccc3)c2C)n1	18.4
CCCCn1nnnc1NCc1ccc(N2CCCC2)cc1	-7.72
CCOc1ccccc1NC(=O)c1ccc2c(=O)n3c(nc2c1)CCCCC3	-58.6
COc1cccc(-c2ccc3ncnc(NCc4cccs4)c3c2)c1	3.11
CCOC(=O)Nc1ccc2c(COC(=O)CN(C)S(=O)(=O)c3ccc(C)cc3)cc(=O)oc2c1	-7.1
CC1CC(C)CN(S(=O)(=O)c2ccc(NC(=O)[C@@H]3CCCN3C(=O)c3cccs3)cc2)C1 (some centres unmarked)	1.69
COc1cccc(CNC(=O)CCC2CCCN(C(=O)c3cc(C4CC4)[nH]n3)C2)c1 (centres unmarked)	14.5
O=C(NNC(=O)c1ccccc1-c1ccccc1C(=O)O)c1ccccc1	21.7
O=C(COc1ccccc1)Nc1nc(-c2cccs2)cs1	5.72
CC(=O)c1cc2c(cc1NC(=O)Cc1ccsc1)OCO2	10.9
CN1CCN(NC(=O)NC2CCCCC2)CC1	7.42
